In PubChem BioAssay (NCATS):
Values joined by “and” are separate entries in the source; they are usually repeats but may differ in a detail not shown here. Identical values can stand only once. The shares of active, inactive and inconclusive entries below differ from those in the screen. Potencies of inconclusive entries are doubtful fits and often do not repeat. Active and inactive are the calls of the source. Calls follow the shape of the dose curve; as a rule, active = well fitted curve in the direction sought with a large enough effect; inconclusive = small, poorly fitted or top-dose-only effect, or another doubt; inactive = no such curve, though single readings can be large; an effect the other way counts as inactive or inconclusive.

What was measured:
[1] = qHTS of pediatric cancer cell lines to identify multiple opportunities for drug repurposing: Primary screen for TC32 cells (AID 1347089); also: nearly all actives have a fitted effect of over 60% in size
Summary of the method: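 A viability screen of TC32 cells was run over 48 h, with primary MIPE doses spanning 0.78 nM–46 µM and NPC doses 0.59 nM–46 µM. ATP luminescence (CellTiter-Glo) served as the read-out.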

[2] = qHTS of pediatric cancer cell lines to identify multiple opportunities for drug repurposing: Primary screen for DAOY cells (AID 1347090); also: nearly all actives have a fitted effect of over 55% in size
Summary of the method: (§1)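 Viability measured as metabolically active cells via CellTiter-Glo luminescence following 48 hours of compound exposure, 11-point dilutions in confirmatory testing. 500-1,000 cells/well plated 5 hours before dosing; controls were DMSO and 2.3 µM bortezomib.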

[3] = qHTS of pediatric cancer cell lines to identify multiple opportunities for drug repurposing: Primary screen for SK-N-MC cells (AID 1347093); conditions: SK-N-MC viability, CellTiter-Glo luminescence, 48 h; activity change, negative = cytotoxic: at 46 µM (top of the series)
Summary of the method: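 Metabolically active cells were quantified by ATP-dependent luminescence (CellTiter-Glo, 15 min at room temperature) following 48 h treatment. Cells had been plated at 500-1,000 per well and settled for 5 h beforehand.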

[4] = qHTS of pediatric cancer cell lines to identify multiple opportunities for drug repurposing: Primary screen for NB-EBc1 cells (AID 1347095)
Summary of the method: (§2)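 500-1,000 cells/well; 5 h pre-incubation 37 °C/5% CO2; compound pinned; 48 h; CellTiter-Glo, 15 min RT; luminescence. MIPE 11-pt from 0.78 nM, NPC 8-pt from 0.59 nM final. Bortezomib 2.3 µM final as positive control.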

[5] = qHTS of pediatric cancer cell lines to identify multiple opportunities for drug repurposing: Primary screen for U-2 OS cells (AID 1347096); also: nearly all actives have a fitted effect of over 50% in size
Summary of the method: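 Viability after 48 h compound treatment at 37C, 500-1,000 cells/well, read as ATP luminescence with CellTiter-Glo. Primary screens used 11-point (MIPE, 0.78 nM-46 µM) or 8-point (NPC, 0.59 nM-46 µM) final concentrations; follow-up screens used 11-point dilutions.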

[6] = qHTS of pediatric cancer cell lines to identify multiple opportunities for drug repurposing: Primary screen for A673 cells (AID 1347092); conditions: A673 Ewing sarcoma viability, CellTiter-Glo ATP luminescence, 48 h; activity change, negative = cytotoxic: at 46 µM (top of the series); also: nearly all actives have a fitted effect of over 45% in size
Summary of the method: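 Titration-based qHTS on A673 cells: MIPE compounds spanned 11 points (0.78 nM to 46 µM final), NPC compounds 8 points (0.59 nM to 46 µM final). Viability after 48 h was measured by ATP luminescence.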

[7] = qHTS of pediatric cancer cell lines to identify multiple opportunities for drug repurposing: Primary screen for BT-37 cells (AID 1347094)
Summary of the method: as §2

[8] = qHTS of pediatric cancer cell lines to identify multiple opportunities for drug repurposing: Primary screen for SJ-GBM2 cells (AID 1347091)
Summary of the method: as §1
Potency is read from the fitted curve at half-maximal effect; tags tell the direction and shape of the fitted curve.

| SMILES | Potency [1] | Potency [2] | Potency [3] | Potency [4] | Potency [5] | Potency [6] | Potency [7] | Potency [8] |
| --- | --- | --- | --- | --- | --- | --- | --- | --- |
| Nc1ncn([C@@H]2O[C@H](CO)[C@@H](O)[C@@H]2O)c(=O)n1 | inconclusive: 26.2 µM [cytotoxic, single point] | inconclusive: 9.35 µM [cytotoxic, full curve] | inconclusive: 37.2 µM [cytotoxic, single point] | active: 16.6 µM | inconclusive: 18.7 µM [cytotoxic, single point] |  |  |  |
| CCn1c(-c2nonc2N)nc2cnc(Oc3cccc(NC(=O)c4ccc(OCCN5CCOCC5)cc4)c3)cc21 | inactive | inconclusive: 11.8 µM [cytotoxic, partial curve] | active: 7.43 µM |  |  | inconclusive: 9.35 µM [cytotoxic, partial curve] | inconclusive: 9.68 µM [cytotoxic, full curve] |  |
| C=C(CC)C(=O)c1ccc(OCC(=O)O)c(Cl)c1Cl | inconclusive: 11.8 µM [cytotoxic, partial curve, poor fit] | inconclusive: 21.1 µM [cytotoxic, single point] |  |  | inconclusive: 10.6 µM [cytotoxic, partial curve, poor fit] | inconclusive: 21.1 µM [cytotoxic, single point] | inconclusive: 38.9 µM [cytotoxic, partial curve, poor fit] |  |
| Cc1nc(NC(=O)N2CCC[C@@H]2C(N)=O)sc1-c1csc(C(C)(C)C)n1 | inconclusive: 6.58 µM [cytotoxic, partial curve] | active: 14.8 µM |  |  | inconclusive: 1.87 µM [cytotoxic, partial curve, poor fit] |  | inconclusive: 7.69 µM [cytotoxic, partial curve] | active: 4.18 µM |
| CS(=O)(=O)c1ccc(C(=O)Nc2ccc(Cl)c(-c3ccccn3)c2)c(Cl)c1 | inactive | inactive |  |  |  | inconclusive: 2.35 µM [cytotoxic, full curve, poor fit] |  |  |
| COc1ccc(CCN2CCC(Nc3nc4ccccc4n3Cc3ccc(F)cc3)CC2)cc1 | inconclusive: 33.3 µM [cytotoxic, single point] | inconclusive: 33.5 µM [cytotoxic, single point] | inconclusive: 33.5 µM [cytotoxic, single point] | inconclusive: 18.8 µM [cytotoxic, partial curve, poor fit] | inconclusive: 13.3 µM [cytotoxic, partial curve, poor fit] |  | active: 30.9 µM | inconclusive: 26.6 µM [cytotoxic, single point] |
| CCCCCCCCCCCCCCCC[N+](C)(C)Cc1ccccc1 | inconclusive: 29.7 µM [cytotoxic, single point] | inconclusive: 33.5 µM [cytotoxic, single point] |  | inconclusive: 29.9 µM [cytotoxic, single point] | inconclusive: 26.6 µM [cytotoxic, single point] |  |  | inconclusive: 21.1 µM [cytotoxic, single point] |
| NC1(C(=O)N[C@@H](CCO)c2ccc(Cl)cc2)CCN(c2ncnc3[nH]ccc23)CC1 | inconclusive: 5.87 µM [cytotoxic, partial curve] | active: 14.8 µM |  | active: 5.26 µM | inconclusive: 5.9 µM [cytotoxic, partial curve] |  | inconclusive: 15.3 µM [cytotoxic, partial curve] | inconclusive: 2.09 µM [cytotoxic, partial curve] |
| O=c1c(-c2ccccc2)c1-c1ccccc1 | inconclusive: 33.3 µM [cytotoxic, single point] | active: 21.1 µM |  | inconclusive: 29.9 µM [cytotoxic, single point] | inconclusive: 21.1 µM [cytotoxic, partial curve] |  | inconclusive: 30.9 µM [cytotoxic, single point] | inconclusive: 26.6 µM [cytotoxic, single point] |
| NC(=NCCCCCCN=C(N)/N=C(\N)Nc1ccc(Cl)cc1)/N=C(\N)Nc1ccc(Cl)cc1 | inconclusive: 29.7 µM [cytotoxic, single point] | active: 21.1 µM | inconclusive: 29.9 µM [cytotoxic, single point] | inconclusive: 21.1 µM [cytotoxic, single point] | inconclusive: 21.1 µM [cytotoxic, partial curve, poor fit] |  | inconclusive: 38.9 µM [cytotoxic, single point] | inconclusive: 18.8 µM [cytotoxic, single point] |
| COc1ccc(-c2ccc3c(N4CCOCC4)nc(N4C[C@@H](C)O[C@@H](C)C4)nc3n2)cc1CO | inconclusive: 2.62 µM [cytotoxic, full curve] | inconclusive: 3.72 µM [cytotoxic, partial curve] | active: 0.0935 µM |  | inconclusive: 2.96 µM [cytotoxic, full curve] |  | active: 1.37 µM |  |
| c1ccc2c(CCNc3ccc(Nc4ccncc4)cc3)c[nH]c2c1 | active: 20.8 µM | inconclusive: 18.7 µM [cytotoxic, partial curve] |  | active: 2.35 µM |  |  | active: 4.32 µM | active: 5.9 µM |
| CC(=CC(=O)Nc1ccccc1C(=O)O)c1ccc2ccccc2c1 | inactive | inconclusive: 18.7 µM [cytotoxic, single point] |  | inconclusive: 14.8 µM [cytotoxic, partial curve] |  |  | inconclusive: 24.3 µM [cytotoxic, partial curve, poor fit] | inactive |
| CN(C)c1ccc(C(=C2C=CC(=[N+](C)C)C=C2)c2ccc(N(C)C)cc2)cc1 | active: 2.64 µM and active: 1.17 µM | active: 2.66 µM and active: 1.48 µM | inconclusive: 0.166 µM [cytotoxic, full curve, poor fit] |  |  |  | active: 1.23 µM and active: 685 nM |  |
| Cc1ccc(C(=O)N(CCCN)[C@@H](c2nc3cc(Cl)ccc3c(=O)n2Cc2ccccc2)C(C)C)cc1 | active: 0.0165 µM | active: 0.0015 µM |  |  |  | active: 0.001 µM | inconclusive: 0.193 µM [cytotoxic, full curve] |  |
| CCOC(=O)N1CCN([N+]([O-])=NOc2ccc([N+](=O)[O-])cc2C#N)CC1 | active: 3.7 µM | inconclusive: 2.35 µM [cytotoxic, full curve] |  | active: 5.26 µM | inconclusive: 3.72 µM [cytotoxic, full curve, poor fit] |  |  | inconclusive: 10.5 µM [cytotoxic, single point] |
| O=C1NCN(c2ccccc2)C12CCN(CCCC(c1ccc(F)cc1)c1ccc(F)cc1)CC2 | inconclusive: 23.6 µM [cytotoxic, single point] | inconclusive: 21.1 µM [cytotoxic, single point] |  | inconclusive: 29.9 µM [cytotoxic, single point] | inconclusive: 26.6 µM [cytotoxic, single point] | inconclusive: 33.5 µM [cytotoxic, single point] | inconclusive: 27.6 µM [cytotoxic, single point] |  |
| COCc1c(C(C)C)nc(C(C)C)c(/C=C/[C@@H](O)C[C@@H](O)CC(=O)O)c1-c1ccc(F)cc1 | active: 1.49 µM | active: 0.266 µM | active: 1.19 µM |  |  |  |  |  |
| NC(N)=NN=C(/C=C/c1ccc([N+](=O)[O-])o1)/C=C/c1ccc([N+](=O)[O-])o1 | active: 6.64 µM | active: 10.6 µM | inconclusive: 2.66 µM [cytotoxic, full curve, poor fit] |  | inconclusive: 26.6 µM [cytotoxic, single point] |  |  | inconclusive: 6.68 µM [cytotoxic, partial curve, poor fit] |
| C[C@H]1[C@H](O)O[C@@H]2O[C@@]3(C)CC[C@@H]4[C@H](C)CC[C@@H]1[C@@]24OO3 | inconclusive: 11.7 µM [cytotoxic, partial curve] | inconclusive: 18.7 µM [cytotoxic, partial curve] |  |  | inconclusive: 2.96 µM [cytotoxic, full curve] |  |  | inconclusive: 4.18 µM [cytotoxic, full curve] |
| O=C(Nc1ccc(Cl)cc1)Nc1ccc(Cl)c(Cl)c1 | inconclusive: 21 µM [cytotoxic, single point] | inconclusive: 21.1 µM [cytotoxic, single point] |  |  | inconclusive: 16.8 µM [cytotoxic, partial curve, poor fit] | inconclusive: 26.6 µM [cytotoxic, single point] | inconclusive: 24.6 µM [cytotoxic, single point] |  |
| Cc1cnc(CNC(=O)c2c(=O)c3ccc(N4CCCN(C)CC4)nc3n3c2sc2ccccc23)cn1 | inconclusive: 7.2 µM [cytotoxic, partial curve, poor fit] | inactive | inconclusive: 12.9 µM [cytotoxic, single point] |  | inactive |  | inconclusive: 0.841 µM [cytotoxic, partial curve] | inconclusive: 4.57 µM [cytotoxic, full curve, poor fit] |
